# Measured values taken from PubChem BioAssay AID624417 (National Center for Advancing Translational Sciences (NCATS), 2012).
# About 6,400 (1.6%) of roughly 410,000 compounds were called active. This list was built around the results that the source calls inconclusive (neither active nor inactive); the mix of calls is not that of the screen. Calls come from the whole dose curve; as a rule, active = well fitted inhibition curve with a large enough effect; inconclusive = small, poorly fitted or top-dose-only effect; inactive = no such curve, though single readings can be large or run the other way. No potency is given beside an inconclusive call; the fits are too rough.
# Molecular target: Glucagon-like peptide 1 receptor (Homo sapiens) (UniProt P43220)
# Test: qHTS of GLP-1 Receptor Inverse Agonists (Inhibition Mode); note: nearly all actives have a fitted effect of over 55% in size
# Conditions: HEK293 GLP-1R CRE-luciferase, luminescence, 24 h, GLP-1R form is constitutively active; series mostly up to 38.3 µM
# Procedure, shortened: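 HEK293 cells stably co-expressing a cAMP-responsive luciferase reporter and constitutively active GLP-1R were seeded, incubated 12 h, then exposed to compounds for 24 h at 37 C. Luminescence was read 12 min after detection reagent; inverse agonists lower signal.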
# Potency is the fitted concentration of half-maximal effect; tags give direction and shape of the fitted curve.
# UniProt P43220, sequence (P43220 whole entry, looked up): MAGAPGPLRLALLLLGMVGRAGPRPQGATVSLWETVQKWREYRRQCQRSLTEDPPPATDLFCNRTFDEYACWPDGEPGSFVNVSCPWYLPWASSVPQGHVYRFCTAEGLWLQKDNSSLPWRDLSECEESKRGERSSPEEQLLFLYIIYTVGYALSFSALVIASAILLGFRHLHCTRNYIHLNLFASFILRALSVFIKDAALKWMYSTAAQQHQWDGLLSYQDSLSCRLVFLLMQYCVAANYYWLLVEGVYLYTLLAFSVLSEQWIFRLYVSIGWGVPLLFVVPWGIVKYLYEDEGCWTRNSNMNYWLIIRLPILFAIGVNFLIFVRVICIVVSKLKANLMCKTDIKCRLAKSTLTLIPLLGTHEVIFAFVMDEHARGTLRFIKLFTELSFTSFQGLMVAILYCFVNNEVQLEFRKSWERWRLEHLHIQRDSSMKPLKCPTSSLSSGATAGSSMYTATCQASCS
row,SMILES,Potency
1,Cc1ccc(Nc2sc(C(=O)c3ccc(F)cc3)c(N)c2S(=O)(=O)c2ccc(C)cc2)cc1,"inconclusive [inhibitor, partial curve]"
2,COc1ccccc1N1CCN(S(=O)(=O)c2c(C)sc3ncn(CC(=O)Nc4ccc(C)cc4Br)c(=O)c23)CC1,inactive
3,COc1ccc(N(CC(=O)NCCSc2ccccc2)S(=O)(=O)c2ccccc2)cc1,"inconclusive [inhibitor, partial curve, poor fit]"
4,N#C/C(=C/c1ccncc1)c1nc2ccccc2s1,inactive
5,Clc1ccc2nc(-c3cccc(SC4CCCCC4)c3)c(NCc3ccccc3)n2c1,"inconclusive [inhibitor, partial curve, poor fit]"
6,Cc1cc(O)c(/C=N/Nc2ccc(Cl)cc2)c(=O)o1,"inconclusive [inhibitor, full curve, poor fit]"
7,CSc1cccc(NC(=O)CN(C)S(=O)(=O)c2ccc(C)cc2)c1,"inconclusive [inhibitor, partial curve, poor fit]"
8,COC(=O)c1[nH]c2ccccc2c1NC(=O)CCN1CCSCC1,inactive
9,CC(C)Oc1ccc(Nc2ncnc3ccccc23)cc1,"inconclusive [inhibitor, single point]"
10,COCc1ccc(CN2CCC(N3CCC(C(=O)N4CCCC4)CC3)CC2)o1,inactive
11,Cc1noc(C)c1COc1cccc(C(=O)NCc2cccc(Cl)c2)c1,"inconclusive [inhibitor, single point]"
12,Cc1ccc(-n2ncc(C(=O)NC3CCN(Cc4ccccc4)CC3)c2C2CCN(C(=O)OC(C)(C)C)CC2)cc1C,"inconclusive [inhibitor, single point]"
13,CCOc1c2ccc(C(=O)NCc3cc(C(F)(F)F)cc(C(F)(F)F)c3)cc2nn1C,"inconclusive [inhibitor, single point]"
14,Cc1nnc(SCC(=O)c2c(N)n(C3CC3)c(=O)[nH]c2=O)n1C,inactive
15,CN(C)S(=O)(=O)N(CC(=O)N1CCC(Cc2ccccc2)CC1)c1ccccc1,"inconclusive [inhibitor, partial curve, poor fit]"
16,O=S(=O)(c1ccccc1)C1CON(Cc2ccccc2)C1c1ccccc1 (configuration not stated),inactive
17,O=C(CN1C(=O)NC2(CCOc3ccccc32)C1=O)Nc1ccc(Br)cc1F (configuration not stated),"inconclusive [inhibitor, single point]"
18,NC(=S)Cc1ccccc1Cl,inactive
19,COc1ccc(CCCc2nnc(SCC(=O)Nc3ccc(C)cc3)o2)cc1C,inactive
20,Cc1cnc(C(=O)NNC(=O)c2ccc(Br)cc2)cn1,"inconclusive [inhibitor, single point]"
21,Cc1cc(-n2c(C)cc(C(=O)CSc3ccccn3)c2C)no1,"inconclusive [inhibitor, single point]"
22,COc1ccccc1NC(=O)N(CCN(C)C)Cc1cc2cc(C)ccc2[nH]c1=O,"inconclusive [inhibitor, single point]"
23,CNc1oc(-c2cccs2)nc1C#N,inactive

row,SMILES,Potency
1,CCCCN(C)C(=O)c1ccc(Nc2nc(C(N)Cc3ccc(C(F)(F)F)cc3)cs2)nc1 (configuration not stated),"inconclusive [inhibitor, partial curve, poor fit]"
2,C/C(=N/NC(=O)c1cccs1)c1ccco1,inactive
3,COCc1ccc(C(=O)N2CCCC(N3CCN(c4ccccc4C)CC3)C2)s1 (configuration not stated),"inconclusive [inhibitor, single point]"
4,Clc1ccc(-n2ncc3c(NCCN4CCOCC4)ncnc32)cc1,"inconclusive [inhibitor, partial curve, poor fit]"
5,COc1ccccc1-c1nc(-c2cccc(C)c2)no1,"inconclusive [inhibitor, single point]"
6,Nc1[nH]c(C(=O)c2ccccc2)c(-c2ccc(Cl)c(F)c2)c1C(=O)NCCc1c[nH]c2ccccc12,"inconclusive [inhibitor, partial curve, poor fit]"
7,COc1cc(/C=N/NC(=S)N/N=C/c2cc(OC)c(OC)c(OC)c2)cc(OC)c1OC,inactive
8,O=C(Cc1ccccc1)Nc1cccc(-c2nnc(-c3ccco3)o2)c1,inactive
9,CCOc1cc(C(=O)N/N=C/C2CC=CCC2)cc(OCC)c1OCC (configuration not stated),"inconclusive [inhibitor, partial curve, poor fit]"
10,Cc1c(C(=O)Oc2cccc3cccnc23)oc2ccccc12,"inconclusive [inhibitor, full curve, poor fit]"
11,O=C(OCc1c(F)cccc1Cl)c1cc([N+](=O)[O-])ccc1N1CCOCC1,"inconclusive [inhibitor, single point]"
12,O=C(Nc1cccc(Cl)c1)c1cc(N=Nc2ccc([N+](=O)[O-])cc2Cl)ccc1O,inactive
13,Cc1ccc(Nc2nc(COC(=O)COc3ccc(C=O)cc3)cs2)cc1,inactive
14,Fc1ccc(COc2ccc(Br)cc2CNCc2ccncc2)cc1,"inconclusive [inhibitor, single point]"
15,Cn1c(=O)oc2cc(S(=O)(=O)NC(Cc3ccccc3)C(=O)NCc3ccccc3Cl)ccc21 (configuration not stated),inactive
16,O=C(NCCc1ccccc1)c1ccc2c(c1)OCCCO2,"inconclusive [inhibitor, full curve, poor fit]"
17,CCOC(=O)C1=CN(Cc2cccc(-c3ccc(F)cc3)c2)S(=O)(=O)N(C)C1C (configuration not stated),"inconclusive [inhibitor, single point]"
18,COc1ccc(/C=C/c2nc(-c3ccccc3O)n[nH]2)cc1OC,"inconclusive [inhibitor, single point]"
19,COC(=O)c1ccc(/C=C2/SC(=S)N(CCCC(=O)Nc3ccc(O)cc3)C2=O)cc1,active: 7.94 µM
20,CCOc1ccccc1CNC(=O)C1CCN(c2nc3ccccc3nc2C(F)(F)F)CC1,inactive
21,O=C(Cc1ccc(Br)cc1)Nc1ccc(Cl)cc1,"inconclusive [inhibitor, partial curve]"
22,O=C(O)CSc1ncnc2sc3c(c12)CCCC3,"inconclusive [inhibitor, partial curve, poor fit]"
23,COc1ccc(-c2csc(Nc3ccccc3)[n+]2Cc2ccccc2)cc1,"inconclusive [inhibitor, partial curve, poor fit]"

row,SMILES,Potency
1,O=C(CCn1cnnn1)Nc1ccc(Cl)c(Cl)c1,"inconclusive [inhibitor, partial curve, poor fit]"
2,CCOC(=O)c1cc(S(=O)(=O)NCC2CCN(Cc3cccc(C)c3)CC2)cn1C,"inconclusive [inhibitor, single point]"
3,O=C(COC(=O)C1CC1)NCCc1ccccc1,inactive
4,Cc1cccc(NC(=O)CSc2nnnn2C2CCCC2)c1,"inconclusive [inhibitor, partial curve, poor fit]"
5,CCc1nc2c(OCc3cc(Cl)cc(Cl)c3)cccn2c1N(C)C(=O)Nc1ccccc1OC,"inconclusive [inhibitor, partial curve, poor fit]"
6,O=C(CSc1nnc(-c2ccco2)o1)c1ccccc1Cl,"inconclusive [inhibitor, partial curve, poor fit]"
7,Cn1c(=O)c2c(nc(NCC3CCCO3)n2C)n(C)c1=O (configuration not stated),inactive
8,CN(C)CCNC(=O)c1csc(Nc2cccc3ccccc23)n1,"inconclusive [inhibitor, partial curve]"
9,CCN(CC)c1cccc(OCC(=O)N2c3ccccc3CC2C)c1 (configuration not stated),"inconclusive [inhibitor, partial curve, poor fit]"
10,C=CCN(Cc1nc(-c2ccccc2)no1)C(=O)c1ccc2c(c1)OCO2,"inconclusive [inhibitor, single point]"
11,O=C(NCCc1ccco1)c1nn(Cc2ccccc2)c(=O)c2ccccc12,"inconclusive [inhibitor, partial curve, poor fit]"
12,CCOc1ccc(-c2nnc(SCC(=O)Nc3cc(C)ccc3OC)o2)cc1,inactive
13,COc1ccc(CCN2CC(C(=O)NCCc3ccccc3C(F)(F)F)CCC2=O)cc1 (configuration not stated),"inconclusive [inhibitor, single point]"
14,COc1ccc(-c2ccc3oc(-c4ccc(OC)cc4)c(C#CCO)c3c2)cc1,"inconclusive [inhibitor, full curve, poor fit]"
15,S=C(NCCCN1CCN(CCCNC(=S)NC2CCCCC2)CC1)NC1CCCCC1,"inconclusive [inhibitor, partial curve, poor fit]"
16,Cc1ccc2nc(C)c3c(c2c1)OC(C(C)(Cl)Br)C3 (configuration not stated),"inconclusive [inhibitor, single point]"
17,S=c1[nH]nc(Cc2cccs2)n1-c1ccccc1,inactive
18,CCn1c(CN2CCCCC2)nc2cc(NC(=O)c3cccc([N+](=O)[O-])c3)ccc21,"inconclusive [inhibitor, full curve, poor fit]"
19,COc1cc(NS(=O)(=O)c2ccc(NC(=S)NC(=O)c3cccs3)cc2)nc(OC)n1,inactive
20,CCN(CC)S(=O)(=O)c1ccc2oc(Nc3ccccc3)nc2c1,"inconclusive [inhibitor, partial curve, poor fit]"
21,CCOc1ccc(N(CC(=O)Nc2ccc(Br)cc2)S(C)(=O)=O)cc1,"inconclusive [inhibitor, single point]"
